The text below walks through data of the supplement of paper PMC8047034.

Structures can show the parent of a compound that is named as a salt. This is one part of the list. Most values come without repeats; read them as rough.

The experiment relates to Ov4Carbo. Briefly: log2 surviving fraction (library drug vs vehicle, or drug + carboplatin vs carboplatin alone; relative to plate median); ovarian cancer lines: OVCAR4 is platinum-sensitive and Ov4Carbo platinum-resistant; higher = more cell survival. As to conditions: library drug concentration 10 µM; 7 days; carboplatin co-treatment 5 µM.
As to `N#CC[C@H](C1CCCC1)n1cc(-c2ncnc3[nH]ccc23)cn1`, the log2 surviving fraction was found to be 0.327.

With `Cn1cnc([N+](=O)[O-])c1Sc1ncnc2[nH]cnc12` [Azathioprine (Azasan, Imuran)], the log2 surviving fraction was -2.49.

Take `Cc1nnc(C(=O)NC(C)(C)c2nc(C(=O)NCc3ccc(F)cc3)c(O)c(=O)n2C)o1` [Raltegravir (MK-0518)]: the log2 surviving fraction worked out at 2.47.

With `NCCS` [Cysteamine HCl], the log2 surviving fraction is -0.875.

Take `CCOc1nc2cccc(C(=O)O)c2n1Cc1ccc(-c2ccccc2-c2nnn[nH]2)cc1` [Candesartan (Atacand)]: the log2 surviving fraction came to 0.35.

As for `Cc1nccn1CC1CCc2c(c3ccccc3n2C)C1=O` (configuration not stated) [Ondansetron hydrochloride (Zofran)], the log2 surviving fraction turned out to be 0.378.

Turning to `COc1ccc(CN2CCN(C(c3ccc(F)cc3)c3ccc(F)cc3)CC2)c(OC)c1OC` [Lomerizine HCl], the log2 surviving fraction came out at 0.552.

Regarding `CN1CCN(C2=Nc3ccccc3Oc3ccc(Cl)cc32)CC1` [Loxapine Succinate], the log2 surviving fraction is -0.532.

Regarding `CC(NC(C)(C)C)C(=O)c1cccc(Cl)c1` (configuration not stated) [Amfebutamone (Bupropion)], the log2 surviving fraction came to 1.32.

As to `CC(=O)OCC1=C(C(=O)O)N2C(=O)[C@@H](NC(=O)CSc3ccncc3)[C@H]2SC1` [Cephapirin Sodium], the log2 surviving fraction was -2.3.

`C[C@@H](O[C@H]1OCCN(Cc2nn(P(=O)(O)O)c(=O)[nH]2)[C@H]1c1ccc(F)cc1)c1cc(C(F)(F)F)cc(C(F)(F)F)c1` [Fosaprepitant dimeglumine]: the log2 surviving fraction is -1.9.

For the compound `COc1cc(Cc2cnc(N)nc2N)cc(OC)c1OC` [Trimethoprim], the log2 surviving fraction came to 0.919.

In the case of `C#C[C@]1(O)CC[C@H]2[C@@H]3CCC4=CC(=O)CC[C@@H]4[C@H]3CC[C@@]21CC` [Levonorgestrel (Levonelle)], the log2 surviving fraction was -0.192.

Turning to `CNCC(O)c1ccc(O)c(O)c1` (racemic) [DL-Adrenaline], the log2 surviving fraction was 0.273.

`CCN(CC)CCNC(C(=O)OCCC(C)C)c1ccccc1` (configuration not stated) [Camylofin Chlorhydrate]: the log2 surviving fraction is -2.65.

Take `CCN(CC)C(=O)/C(C#N)=C/c1cc(O)c(O)c([N+](=O)[O-])c1` [Entacapone]: the log2 surviving fraction was determined as 1.21.

For `CC(=O)[C@H]1CC[C@H]2[C@@H]3CCC4=CC(=O)CC[C@]4(C)[C@H]3CC[C@]12C` [Progesterone (Prometrium)], the log2 surviving fraction is -0.509.

With `CC1CC(OC(=O)C(O)c2ccccc2)CC(C)(C)C1` (configuration not stated) [Cyclandelate], the log2 surviving fraction was -0.776.

For the compound `O=c1[nH]c(=O)n(C2CCCO2)cc1F` (configuration not stated) [Ftorafur], the log2 surviving fraction was -0.115.

In the case of `CC[C@H](C)C[C@H](C)CCCCCCCCC(=O)N[C@H]1C[C@@H](O)[C@@H](NCCN)NC(=O)[C@@H]2[C@@H](O)CCN2C(=O)[C@H]([C@H](O)CCN)NC(=O)[C@H]([C@H](O)[C@@H](O)c2ccc(O)cc2)NC(=O)[C@@H]2C[C@@H](O)CN2C(=O)[C@H]([C@@H](C)O)NC1=O` [Caspofungin acetate], the log2 surviving fraction was found to be 1.4.

With `CC(=O)O[C@H]1C[C@@H]2CC[C@@H]3[C@H](CC[C@@]4(C)[C@H]3C[C@H]([N+]3(C)CCCCC3)[C@@H]4OC(C)=O)[C@@]2(C)C[C@@H]1N1CCCCC1` [Vecuronium Bromide], the log2 surviving fraction is 1.24.

Turning to `CN(C)CCOC(c1ccccc1)c1ccccc1` [Diphenhydramine HCl (Benadryl)], the log2 surviving fraction came out at 0.157.

In the case of `C#CCC(Cc1cnc2nc(N)nc(N)c2n1)c1ccc(C(=O)N[C@@H](CCC(=O)O)C(=O)O)cc1` (some centres not stated) [Pralatrexate (Folotyn)], the log2 surviving fraction is -2.71.

On to `CCN(CC)CC(=O)Nc1c(C)cccc1C` [Lidocaine (Alphacaine)], for which the log2 surviving fraction was -0.32.

As to `COC(=O)[C@H](Cc1ccccc1)NC(=O)[C@@H](N)CC(=O)O` [Aspartame], the log2 surviving fraction was 0.846.

For `C=CC[N+]1([C@H]2C[C@H]3[C@@H]4CC[C@H]5C[C@H](O)[C@@H](N6CCOCC6)C[C@]5(C)[C@H]4CC[C@]3(C)[C@H]2OC(C)=O)CCCC1` [Rocuronium bromide], the log2 surviving fraction was found to be 0.0569.

`C#C[C@]1(O)C=C[C@H]2[C@@H]3CCC4=CC(=O)CC[C@@H]4[C@H]3CC[C@@]21CC` [Gestodene]: the log2 surviving fraction is -2.
